Data published in the supplement of paper PMC7125110.
± gives the standard error. For part of these data: This sample is rich in variants without activity.

B1: glmS ribozyme (parent)
chain: AUAAAAGCGCCAGAACUACAGAAAUGUAGUUGACGAGGAGGAGGUUUAUCGAAUUUUCGGCGGAUGCCUCCAAA

Columns and labels:
Settings in all cases: with glucosamine-6-phosphate
[1] = variants of: B1; assay: self-cleavage kobs at 640 uM GlcN6P; higher = faster cleavage; RNA array
Outline: (§1)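 Tiles of sequenced MiSeq chips were imaged over ~14 h at 37 °C. On them, barcoded ribozyme variants had been transcribed in situ by E. coli RNA polymerase and were tracked via a hybridised Cy3 probe while glucosamine-6-phosphate (40 μM to 10 mM) in HEPES/KCl/Mg(OAc)2 buffer flowed in. Per-tile medians, normalised to baseline and to non-cleaving reference variants, were fit to one- or two-exponential decays for kobs, and weighted Michaelis–Menten fits gave kcat and KM.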

[2] = variants of: B1; assay: self-cleavage kobs at 160 uM GlcN6P; higher = faster cleavage; RNA array
Outline: as §1

[3] = variants of: B1; assay: self-cleavage kobs at 2500 uM GlcN6P; higher = faster cleavage; RNA array
Outline: as §1

[4] = variants of: B1; assay: self-cleavage kobs at 10000 uM GlcN6P; higher = faster cleavage; RNA array
Outline: as §1

| Variant | self-cleavage kobs at 640 uM GlcN6P [1] [s⁻¹] | self-cleavage kobs at 160 uM GlcN6P [2] [s⁻¹] | self-cleavage kobs at 2500 uM GlcN6P [3] [s⁻¹] | self-cleavage kobs at 10000 uM GlcN6P [4] [s⁻¹] |
| --- | --- | --- | --- | --- |
| G13A G43U U56G G60A C61U | < 1e-05 |  |  |  |
| G13A G44A C70U C71A | < 1e-05 | < 1e-05 | < 1e-05 |  |
| G13A G44C U49A | < 1e-05 |  |  |  |
| G13A G59A G62A | < 1e-05 |  |  |  |
| G13A U30G | 3.9e-05 ± 1e-05 |  | 0.000144 ± 3.3e-05 | 0.000271 ± 3.9e-05 |
| G13A U31G G35C | < 1e-05 |  |  |  |
| G13A U45A U49A | < 1e-05 |  | < 1e-05 |  |
| G13C A14C C71U | 4.16e-05 ± 1.1e-05 |  | 0.000105 ± 1.7e-05 |  |
| G13C A14C G32U U69C | 8.31e-05 ± 2.1e-05 |  | 7.03e-05 ± 2e-05 |  |
| G13C A14C U55G G59U | < 1e-05 | < 1e-05 |  |  |
| G13C A14U | 6.86e-05 ± 1.5e-05 |  | 0.000186 ± 3e-05 | 0.00025 ± 3.1e-05 |
| G13C A14U A42U A64G | < 1e-05 |  |  |  |
| G13C A33U G60C | < 1e-05 |  |  |  |
| G13C A39C C61A C70U | < 1e-05 |  |  |  |
| G13C G29C G35U A53U | < 1e-05 |  | < 1e-05 |  |
| G13C G32A U45A A52U G60A G62C A64G C68U | < 1e-05 |  | < 1e-05 |  |
| G13C G35A U55C C68U | < 1e-05 |  |  |  |
| G13C G35U C61U | < 1e-05 |  |  |  |
| G13C G38C C58G U65G C71G | < 1e-05 |  |  |  |
| G13C G38U | < 1e-05 | < 1e-05 |  |  |
| G13C G41U U65C | < 1e-05 | < 1e-05 |  |  |
| G13C U31A | 7.16e-05 ± 1.3e-05 |  | 0.00017 ± 3.3e-05 |  |

| Variant | self-cleavage kobs at 640 uM GlcN6P [1] [s⁻¹] | self-cleavage kobs at 160 uM GlcN6P [2] [s⁻¹] | self-cleavage kobs at 2500 uM GlcN6P [3] [s⁻¹] | self-cleavage kobs at 10000 uM GlcN6P [4] [s⁻¹] |
| --- | --- | --- | --- | --- |
| G13C U31G G40A C68A | < 1e-05 |  | < 1e-05 |  |
| G13C U49A U56G G59U G63U | < 1e-05 |  | < 1e-05 |  |
| G13C U55A U69A | 0.00022 ± 7e-05 |  |  |  |
| G13C U57C C58A | < 1e-05 |  |  |  |
| G13U A14C G32A U46C G63A C68U U69G C71U | < 1e-05 | < 1e-05 |  |  |
| G13U A15G G32A C70G | 5.48e-05 ± 1.7e-05 |  | 8.14e-05 ± 1.6e-05 | 8.98e-05 ± 1.9e-05 |
| G13U A33G A64U | < 1e-05 |  | < 1e-05 |  |
| G13U A33U G35U | < 1e-05 |  |  |  |
| G13U A39U A48U G51A U55G C70A | < 1e-05 |  |  |  |
| G13U A42U | < 1e-05 | < 1e-05 | < 1e-05 |  |
| G13U A42U A48U G51A | < 1e-05 |  |  |  |
| G13U A42U U46G G51A | < 1e-05 |  | < 1e-05 |  |
| G13U A64C | < 1e-05 |  |  |  |
| G13U A64U C70G | < 1e-05 |  |  |  |
| G13U C34G A64U | < 1e-05 |  |  |  |
| G13U G29A A33U | < 1e-05 |  |  |  |
| G13U G29C A33C A39G U46C | < 1e-05 |  | < 1e-05 |  |
| G13U G29U G37U | < 1e-05 |  |  |  |
| G13U G32U A36U G66A C67U | < 1e-05 |  | < 1e-05 |  |
| G13U G35A A52U | < 1e-05 |  |  |  |
| G13U G35U U45G | < 1e-05 |  |  |  |
| G13U G40C G60A | < 1e-05 |  | < 1e-05 |  |

| Variant | self-cleavage kobs at 640 uM GlcN6P [1] [s⁻¹] | self-cleavage kobs at 160 uM GlcN6P [2] [s⁻¹] | self-cleavage kobs at 2500 uM GlcN6P [3] [s⁻¹] | self-cleavage kobs at 10000 uM GlcN6P [4] [s⁻¹] |
| --- | --- | --- | --- | --- |
| G13U G41U C61G C71G | < 1e-05 | < 1e-05 |  |  |
| G13U G60U G62A | < 1e-05 |  |  |  |
| G13U G62U | < 1e-05 |  | < 1e-05 |  |
| G13U U31G A48G A52U | < 1e-05 |  |  |  |
| G13U U57G G60U | < 1e-05 |  |  |  |
| A14C A33G A42U C67G | < 1e-05 |  | < 1e-05 |  |
| A14C A36G A39G U46C | < 1e-05 |  |  |  |
| A14C A36U G38A U69A | 7.64e-05 ± 1.8e-05 |  |  |  |
| A14C A42C U55C U57A | < 1e-05 |  |  |  |
| A14C A42G G66A | 0.000473 ± 0.00012 |  |  |  |
| A14C C16G G66C | < 1e-05 |  | < 1e-05 |  |
| A14C C50A A52G G63U | < 1e-05 |  |  |  |
| A14C C50G | 0.000625 ± 0.00028 | 5.43e-05 ± 1.5e-05 | 4.32e-05 ± 1.3e-05 |  |
| A14C C50U U57C G59C | < 1e-05 | < 1e-05 | < 1e-05 |  |
| A14C C58A | 3.29e-05 ± 1.1e-05 |  | 0.000102 ± 1.6e-05 | 0.000165 ± 1.7e-05 |
| A14C C70A | 5.59e-05 ± 6.8e-06 | 4.49e-05 ± 9.3e-06 | 9.55e-05 ± 8e-06 | 0.000102 ± 9.4e-06 |
| A14C G29C G35U U49A | < 1e-05 |  | < 1e-05 |  |
| A14C G32A G40U G59C | < 1e-05 |  |  |  |
| A14C G32C C71U | 7.58e-05 ± 2.5e-05 |  | 0.000118 ± 2.6e-05 | 0.000332 ± 7.4e-05 |
| A14C G32U A52C | < 1e-05 | < 1e-05 | < 1e-05 |  |
| A14C G35C A39G | < 1e-05 |  |  |  |
| A14C G37C U57G G60A | < 1e-05 |  |  |  |
